# Test results taken from the supplement of paper PMC8728848.
# This is one part of the list.
# B1: DC-Sign (Homo sapiens), Q9NNX6 (protein)
# chain: MSDSKEPRLQQLGLLEEEQLRGLGFRQTRGYKSLAGCLGHGPLVLQLLSFTLLAGLLVQVSKVPSSISQEQSRQDAIYQNLTQLKAAVGELSEKSKLQEIYQELTQLKAAVGELPEKSKLQEIYQELTRLKAAVGELPEKSKLQEIYQELTWLKAAVGELPEKSKMQEIYQELTRLKAAVGELPEKSKQQEIYQELTRLKAAVGELPEKSKQQEIYQELTRLKAAVGELPEKSKQQEIYQELTQLKAAVERLCHPCPWEWTFFQGNCYFMSNSQRNWHDSITACKEVGAQLVVIKSAEEQNFLQLQSSRSNRFTWMGLSDLNQEGTWQWVDGSPLLPSFKQYWNRGEPNNVGEEDCAEFSGNGWNDDKCNLAKFWICKKSAASCSRDEEQFLSPAPATPNPPPA
# What was measured:
# Assay in all cases: glycan array binding signal (z-score within array); higher = stronger binding
# Settings in all cases: glycan notation: IUPAC condensed, linker removed
# [1] = target: GlcNAc(b1-3)Gal(b1-4)GlcNAc(b1-3)Gal(b1-4)GlcNAc(b1-3)Gal(b1-4)GlcNAc(b1-3)Gal(b1-4)GlcNAc(b1-2)[GlcNAc(b1-3)Gal(b1-4)GlcNAc(b1-3)Gal(b1-4)GlcNAc(b1-3)Gal(b1-4)GlcNAc(b1-3)Gal(b1-4)GlcNAc(b1-6)]Man(a1-6)[GlcNAc(b1-3)Gal(b1-4)GlcNAc(b1-3)Gal(b1-4)GlcNAc(b1-3)Gal(b1-4)GlcNAc(b1-3)Gal(b1-4)GlcNAc(b1-2)Man(a1-3)]Man(b1-4)GlcNAc(b1-4)[Fuc(a1-6)]GlcNAc
# Outline: (§1)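 Arrays were curated from the Consortium for Functional Glycomics database, 3228 in total, and kept only where the protein sequence was available. Binding is expressed as a within-array Z-score. This score was averaged across arrays of the same protein sequence at different concentrations or buffers and across linkers, and negative values can be read as non-binding.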
# [2] = target: GlcNAc(b1-3)Gal(b1-4)GlcNAc(b1-3)Gal(b1-4)GlcNAc(b1-3)GalNAc
# Outline: as §1
# [3] = target: GlcNAc(b1-3)Gal(b1-4)GlcNAc(b1-3)GalNAc
# Outline: as §1
# [4] = target: GlcNAc(b1-3)Gal(b1-4)GlcNAc(b1-3)[GlcNAc(b1-3)Gal(b1-4)GlcNAc(b1-3)]GalNAc
# Outline: as §1
# [5] = target: GlcNAc(b1-3)Gal(b1-4)GlcNAc(b1-6)[Gal(b1-3)]GalNAc
# Outline: as §1
# [6] = target: GlcNAc(b1-3)Gal(b1-4)GlcNAc(b1-6)[GlcNAc(b1-3)Gal(b1-3)]GalNAc
# Outline: as §1
# [7] = target: GlcNAc(b1-3)Gal(b1-4)GlcNAc(b1-6)[GlcNAc(b1-3)]Gal(b1-4)GlcNAc
# Outline: as §1
# GlcNAc(b1-3)GalNAc = target: GlcNAc(b1-3)GalNAc
# Outline: as §1
# GlcNAc(b1-3)Man = target: GlcNAc(b1-3)Man
# Outline: as §1
# [8] = target: GlcNAc(b1-3)[GlcNAc(b1-4)][GlcNAc(b1-6)]GlcNAc
# Outline: as §1
# [9] = target: GlcNAc(b1-3)[GlcNAc(b1-6)]Gal(b1-4)GlcNAc
# Outline: as §1
# [10] = target: GlcNAc(b1-3)[GlcNAc(b1-6)]GalNAc
# Outline: as §1
# [11] = target: GlcNAc(b1-4)Gal(b1-4)GlcNAc
# Outline: as §1
# GlcNAc(b1-4)GlcNAc = target: GlcNAc(b1-4)GlcNAc
# Outline: as §1
# [12] = target: GlcNAc(b1-4)GlcNAc(b1-4)GlcNAc
# Outline: as §1
# [13] = target: GlcNAc(b1-4)GlcNAc(b1-4)GlcNAc(b1-4)GlcNAc(b1-4)GlcNAc
# Outline: as §1
# [14] = target: GlcNAc(b1-4)GlcNAc(b1-4)GlcNAc(b1-4)GlcNAc(b1-4)GlcNAc(b1-4)GlcNAc
# Outline: as §1
# [15] = target: GlcNAc(b1-4)[GlcNAc(b1-6)]GalNAc
# Outline: as §1
# [16] = target: GlcNAc(b1-6)Gal(b1-4)GlcNAc
# Outline: as §1
# GlcNAc(b1-6)GalNAc = target: GlcNAc(b1-6)GalNAc
# Outline: as §1
# [17] = target: GlcNAc6S(b1-3)Gal(b1-4)GlcNAc
# Outline: as §1
# Kdn(a2-3)Gal(b1-3)GalNAc = target: Kdn(a2-3)Gal(b1-3)GalNAc
# Outline: as §1
# Kdn(a2-3)Gal(b1-3)GlcNAc = target: Kdn(a2-3)Gal(b1-3)GlcNAc
# Outline: as §1
# Kdn(a2-3)Gal(b1-4)Glc = target: Kdn(a2-3)Gal(b1-4)Glc
# Outline: as §1
# Kdn(a2-3)Gal(b1-4)GlcNAc = target: Kdn(a2-3)Gal(b1-4)GlcNAc
# Outline: as §1
# [18] = target: Kdn(a2-3)Gal(b1-4)[Fuc(a1-3)]GlcNAc
# Outline: as §1
# Kdn(a2-6)Gal(b1-4)GlcNAc = target: Kdn(a2-6)Gal(b1-4)GlcNAc
# Outline: as §1
# [19] = target: Man(a1-2)Man(a1-2)Man(a1-3)Man
# Outline: as §1
# [20] = target: Man(a1-2)Man(a1-2)Man(a1-6)[Man(a1-3)]Man
# Outline: as §1
# Man(a1-2)Man(a1-3)Man = target: Man(a1-2)Man(a1-3)Man
# Outline: as §1
# [21] = target: Man(a1-2)Man(a1-3)[Man(a1-2)Man(a1-6)]Man
# Outline: as §1
# [22] = target: Man(a1-2)Man(a1-3)[Man(a1-2)Man(a1-6)]Man(a1-6)[Man(a1-2)Man(a1-2)Man(a1-3)]Man
# Outline: as §1
# [23] = target: Man(a1-2)Man(a1-3)[Man(a1-2)Man(a1-6)]Man(a1-6)[Man(a1-2)Man(a1-2)Man(a1-3)]Man(b1-4)GlcNAc(b1-4)GlcNAc
# Outline: as §1
# [24] = target: Man(a1-2)Man(a1-3)[Man(a1-6)]Man(a1-6)[Man(a1-2)Man(a1-3)]Man(b1-4)GlcNAc(b1-4)GlcNAc
# Outline: as §1
# [25] = target: Man(a1-2)Man(a1-6)[Man(a1-3)]Man(a1-6)[Man(a1-2)Man(a1-2)Man(a1-3)]Man
# Outline: as §1
# [26] = target: Man(a1-2)Man(a1-6)[Man(a1-3)]Man(a1-6)[Man(a1-2)Man(a1-2)Man(a1-3)]Man(b1-4)GlcNAc(b1-4)GlcNAc
# Outline: as §1
# Man(a1-3)[Man(a1-6)]Man = target: Man(a1-3)[Man(a1-6)]Man
# Outline: as §1
binder,measurement,setting,value
B1,glycan array binding signal (z-score),[1],-0.077
same,glycan array binding signal (z-score),[2],-0.193
same,glycan array binding signal (z-score),[3],-0.133
same,glycan array binding signal (z-score),[4],-0.145
same,glycan array binding signal (z-score),[5],-0.019
same,glycan array binding signal (z-score),[6],-0.014
same,glycan array binding signal (z-score),[7],-0.072
same,glycan array binding signal (z-score),GlcNAc(b1-3)GalNAc,-0.145
same,glycan array binding signal (z-score),GlcNAc(b1-3)Man,-0.185
same,glycan array binding signal (z-score),[8],-0.139
same,glycan array binding signal (z-score),[9],-0.165
same,glycan array binding signal (z-score),[10],-0.101
same,glycan array binding signal (z-score),[11],-0.132
same,glycan array binding signal (z-score),GlcNAc(b1-4)GlcNAc,-0.109
same,glycan array binding signal (z-score),[12],-0.152
same,glycan array binding signal (z-score),[13],-0.174
same,glycan array binding signal (z-score),[14],-0.191
same,glycan array binding signal (z-score),[15],-0.125
same,glycan array binding signal (z-score),[16],-0.197
same,glycan array binding signal (z-score),GlcNAc(b1-6)GalNAc,-0.146
same,glycan array binding signal (z-score),[17],-0.185
same,glycan array binding signal (z-score),Kdn(a2-3)Gal(b1-3)GalNAc,-0.114
same,glycan array binding signal (z-score),Kdn(a2-3)Gal(b1-3)GlcNAc,-0.188
same,glycan array binding signal (z-score),Kdn(a2-3)Gal(b1-4)Glc,-0.144
same,glycan array binding signal (z-score),Kdn(a2-3)Gal(b1-4)GlcNAc,-0.167
same,glycan array binding signal (z-score),[18],-0.1
same,glycan array binding signal (z-score),Kdn(a2-6)Gal(b1-4)GlcNAc,-0.175
same,glycan array binding signal (z-score),[19],-0.101
same,glycan array binding signal (z-score),[20],4.51
same,glycan array binding signal (z-score),Man(a1-2)Man(a1-3)Man,-0.123
same,glycan array binding signal (z-score),[21],1.28
same,glycan array binding signal (z-score),[22],8.32
same,glycan array binding signal (z-score),[23],0.069
same,glycan array binding signal (z-score),[24],-0.156
same,glycan array binding signal (z-score),[25],0.027
same,glycan array binding signal (z-score),[26],0.25
same,glycan array binding signal (z-score),Man(a1-3)[Man(a1-6)]Man,-0.113
